Test results: PubChem BioAssay AID1476 (National Center for Advancing Translational Sciences (NCATS), 2009)
In all, about 200,000 compounds went through this assay and about 4,500 (2.2%) were called active. Inconclusive results, whose numbers are uncertain, are shown with a selection of clear calls. The call rests on the fitted dose curve; in most records, active means well fitted inhibition curve with a large enough effect; inconclusive means small, poorly fitted or top-dose-only effect, or effect the other way; inactive means flat fitted curve, though single readings scatter. A potency beside an inconclusive call is a rough fit, not a confirmed value.

target: Cruzipain (Trypanosoma cruzi) (UniProt P25779); experiment: qHTS Assay for Promiscuous and Specific Inhibitors of Cruzain (without detergent); settings: purified cruzain, Z-FR-AMC fluorescence, no detergent; further: nearly all actives have a fitted effect of over 40% in size;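 on max response, negative = inhibition: plate controls were enzyme without inhibitor for no effect and buffer without enzyme for full effect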
Sequence of UniProt P25779 (P25779 whole entry, looked up): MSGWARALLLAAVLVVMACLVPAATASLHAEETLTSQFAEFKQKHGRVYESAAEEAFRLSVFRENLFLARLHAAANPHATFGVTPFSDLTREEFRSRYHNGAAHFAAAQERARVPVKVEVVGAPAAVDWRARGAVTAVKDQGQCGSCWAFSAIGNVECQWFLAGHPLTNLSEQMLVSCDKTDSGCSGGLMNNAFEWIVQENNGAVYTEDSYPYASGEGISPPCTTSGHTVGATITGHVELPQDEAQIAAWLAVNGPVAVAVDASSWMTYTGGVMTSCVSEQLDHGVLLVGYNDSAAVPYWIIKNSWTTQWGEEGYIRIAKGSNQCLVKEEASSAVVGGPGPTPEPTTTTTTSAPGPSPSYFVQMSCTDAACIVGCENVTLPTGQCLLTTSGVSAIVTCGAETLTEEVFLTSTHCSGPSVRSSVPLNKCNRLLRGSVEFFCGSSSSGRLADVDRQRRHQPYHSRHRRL
In short: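 Purified cruzain at 1.5 nM, pre-incubated 15 min with compound at room temperature in 100 mM sodium acetate pH 5.5, 5 mM DTT, 0.00005% Triton X-100. Reaction started with 2 uM Z-FR-AMC; AMC fluorescence increase over 60 s gives rate.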
Potency means the concentration at half of the fitted maximal effect; tags describe the fitted curve by direction and shape.

SMILES	Potency	max response, negative = inhibition
O=S(=O)(Nc1c(S(=O)(=O)c2ccccc2)c2nc3ccccc3nc2n1C1CCCCC1)c1ccccc1	inconclusive: 20 µM [activator, single point]	–
COc1ccc(CNS(=O)(=O)c2cnc(N)nc2)c(OC)c1	–	inactive: -9.1%
COC(=O)c1cc2sc(Cl)cc2n1CC(=O)Nc1ccc(OC)c(OC)c1OC	inconclusive: 31.6 µM [activator, single point]	–
COc1cccc(Nc2nnc(SCc3cc([N+](=O)[O-])cc4c3OCOC4)s2)c1	inconclusive: 31.6 µM [inhibitor, single point]	–
COC(=O)CN(C#N)c1nc(NC(C)C)nc(OC)n1	active: 20 µM	–
Cc1ccc(N2C(=O)CSC23C(=O)N(CC(=O)NCc2ccccc2)c2ccccc23)cc1C (stereo not given)	–	inactive: -12%
CCCCCn1c(SCCc2ccccc2)nc2c1c(=O)[nH]c(=O)n2C	inconclusive: 39.8 µM [inhibitor, single point]	–
COc1ccccc1CNC(=O)C1CCC(CNS(=O)(=O)c2ccc3c(c2)CCCC(=O)N3)CC1 (stereo not given)	–	inactive: -0.907%
CCOC(=O)CNC(=O)C1c2ccccc2C(=O)N(c2ccc(OC)cc2)C1c1ccc(OC)cc1 (stereo not given)	inconclusive: 31.6 µM [activator, single point]	–
CCC(=NCCOc1ccc(Cl)cc1)c1c(O)n(C)c(=O)n(C)c1=O	inconclusive: 39.8 µM [activator, single point]	–
Cc1cc(C)c2c(=O)cc(CSCC(=O)Nc3ccccc3Cl)[nH]c2c1	–	inactive: -0.239%
CCc1ccc(C(=O)c2cn(CC(=O)Nc3ccc4c(c3)OCO4)c3cc(OC)c(OC)cc3c2=O)cc1	inconclusive: 7.94 µM [activator, single point]	–
O=C(COc1ccc(Cl)cc1)Nc1ccc(-c2nc3ccccc3s2)c(O)c1	–	inactive: 12.7%
COc1ccc(NC(=O)c2ccc(CNc3c(NC4CCCCC4)c(=O)c3=O)cc2)c(OC)c1	inconclusive: 39.8 µM [inhibitor, single point]	–
O=C(Nc1ccccc1Cc1ccccc1)c1oc2ccccc2c1COc1ccccc1	inconclusive: 31.6 µM [inhibitor, single point]	–
CCOCCSc1nc2c(c(-c3cccs3)c1C#N)CC/C2=C/c1cccs1	active: 15.8 µM	–
O=C(NCCc1ccccc1Cl)c1ccc(Cn2c(=O)c3cccn3c3cccnc32)cc1	–	inactive: -1.62%
COc1ccc(CNC(=O)CCn2cccn2)cc1	–	inactive: -0.903%
Cc1ccc(CCNC(=O)CS(=O)Cc2nc(-c3cccc(C)c3)oc2C)cc1 (stereo not given)	inconclusive: 31.6 µM [activator, single point]	–
Cc1cnc(C(=O)N2CCN(S(=O)(=O)c3ccc4ccccc4c3)CC2)cn1	inconclusive: 31.6 µM [activator, single point]	–
COc1ccc(-c2nc(CN3C(=O)CN=C(c4ccccc4)c4ccccc43)c(C)o2)cc1	inconclusive: 25.1 µM [activator, partial curve]	–
CCOC(=O)C(Sc1cc(C)nc(N)n1)C(C)=O (stereo not given)	–	inactive: -7.58%

SMILES	Potency	max response, negative = inhibition
Cc1[nH]c(=O)[nH]c(=O)c1S(=O)(=O)N1CCCC(C(=O)N2CCC(Cc3ccccc3)CC2)C1 (stereo not given)	inconclusive: 39.8 µM [activator, single point]	–
COc1cc(C2N(c3ccc(Cl)c(Cl)c3)C(=O)C3CCCN32)cc(OC)c1OC (stereo not given)	inconclusive: 25.1 µM [activator, partial curve]	–
Fc1ccc(-c2noc3ncnc(NCCc4ccccc4)c23)cc1	–	inactive: 2.08%
Cc1ccc(NC(=O)Cn2cnc3sc(C(=O)O)c(C)c3c2=O)cc1Cl	–	inactive: 5.5%
CCOC(=O)C1Cn2c(nc3c(c2=O)C(C)(C)Cc2ccccc2-3)S1 (stereo not given)	inconclusive: 39.8 µM [activator, single point]	–
COc1cc(NC(=O)CN(c2ccc(C)cc2)S(=O)(=O)c2cccc3nonc23)cc(OC)c1	inconclusive: 39.8 µM [inhibitor, single point]	–
O=C(Nc1ccc2oc(-c3ccccc3F)nc2c1)c1cncc(Br)c1	inconclusive: 39.8 µM [inhibitor, single point]	–
CCc1cccc(NC(=O)CSC2=Nc3ccccc3N=C(c3ccc(F)cc3)C2)c1	inconclusive: 39.8 µM [inhibitor, single point]	–
CCNC(=O)c1c(NC(=O)C2COc3ccccc3O2)sc2c1CCCC2 (stereo not given)	inconclusive: 39.8 µM [inhibitor, single point]	–
O=C(CC1NC2CCCCC2NC1=O)Nc1ccc2c(c1)OCO2 (stereo not given)	inconclusive: 1.58 µM [inhibitor, single point]	–
O=C(Cn1c(=O)c2cccn2c2ccccc21)NCCc1ccccc1	active: 15.8 µM	–
COc1ccc(NC(=O)Cn2c(SCc3cc(C)ccc3C)nc3ccncc32)c(OC)c1OC	inconclusive: 39.8 µM [activator, single point]	–
Cc1ccc(OCc2ccc(C(=O)Nc3nccs3)o2)cc1C	–	inactive: 0.557%
Cc1c(CCNC(=O)c2ccc(Br)o2)sc2nc(-c3ccc(F)cc3)nn12	inconclusive: 31.6 µM [activator, single point]	–
COc1ccccc1N1CCN(CCCCN2C(=O)c3ccccc3C2=O)CC1	inconclusive: 25.1 µM [inhibitor, single point]	–
Cc1ccc(N2CC(C(=O)NCc3cccs3)CC2=O)cc1C (stereo not given)	inconclusive: 0.199 µM [inhibitor, single point]	–
Cc1ccc(Cl)cc1N1CCN(Cc2nc3c(c(=O)[nH]c(=O)n3C)n2Cc2ccccc2F)CC1	inconclusive: 25.1 µM [activator, single point]	–
Cc1ccsc1CN(C(=O)COc1ccc(Br)cc1)C1CCS(=O)(=O)C1 (stereo not given)	inconclusive: 39.8 µM [activator, single point]	–
Cc1c(C(=O)NCCc2ccccc2)oc2ccc(S(=O)(=O)N3CCC4(CC3)OCCO4)cc12	inconclusive: 39.8 µM [activator, single point]	–
CCCn1c(=O)[nH]c(=O)c2c1nc(-c1ccc(OC(F)(F)C(F)C(F)(F)F)cc1)n2CCOC (stereo not given)	inconclusive: 20 µM [activator, single point]	–
Cc1ccc(-c2nc3n(n2)C(=O)CC(c2ccc(Cl)cc2)S3)cc1 (stereo not given)	–	inactive: -8.85%
Cc1cnc(CNc2cc(-c3ccc(C(=O)N(C)C)cc3)ncn2)cn1	–	inactive: 0.857%

SMILES	Potency	max response, negative = inhibition
Cc1ccc2oc(-c3ccc(NC(=O)c4ccc5c(c4)OCO5)cc3)nc2c1	inconclusive: 15.8 µM [inhibitor, partial curve, poor fit]	–
CN(C)S(=O)(=O)c1ccc(C(=O)Nc2nnc(-c3ccc4c(c3)CCCC4)o2)cc1	inconclusive: 31.6 µM [activator, single point]	–
O=C1NC(=Nc2ccc(Cl)cc2)/C(=C/c2ccco2)S1	active: 5.01 µM	–
O=C1OC(Nc2ccc(Cl)cn2)c2ccccc21 (stereo not given)	inconclusive: 39.8 µM [activator, single point]	–
COc1ccc(OC)c(-n2c(C)ccc2-c2ccc(S(C)(=O)=O)cc2)c1	inconclusive: 39.8 µM [activator, single point]	–
Cc1ccc(Cl)cc1N1CCN(C(CC(C)C)c2nnnn2CC2CCCO2)CC1 (stereo not given)	inconclusive: 15.8 µM [activator, partial curve]	–
CCCCOC(=O)c1ccc(NC(=O)c2nn(C)cc2Br)cc1	inconclusive: 39.8 µM [activator, single point]	–
Cc1cccc2c1N(CCOc1ccc(C(C)(C)C)cc1)C(=O)C2=O	inconclusive: 39.8 µM [activator, single point]	–
Cn1c(=O)c2cc(S(=O)(=O)NC(C(=O)NC3CCCCC3)c3ccccc3)ccc2n(C)c1=O (stereo not given)	inconclusive: 39.8 µM [inhibitor, single point]	–
Cc1nn(-c2ccc(F)cc2)c2sc(C(=O)OC3CCOC3=O)cc12 (stereo not given)	inconclusive: 31.6 µM [activator, single point]	–
COc1ccc(C(=O)Cn2c(=O)c(-c3cc(C)ccc3NC(C)=O)nc3ccccc32)cc1	–	inactive: -7.33%
O=C(CSc1nc(Cc2ccccc2)nc2ccccc12)Nc1ccc2c(c1)OCCO2	inconclusive: 31.6 µM [inhibitor, single point]	–
COc1cc2c(cc1NC(=O)COC(=O)/C=C/c1ccccc1)oc1ccccc12	inconclusive: 39.8 µM [inhibitor, single point]	–
Cc1ccccc1N(C(=O)Cc1c[nH]c2ccccc12)C(C(=O)NC1CCCCC1)c1ccco1 (stereo not given)	inconclusive: 31.6 µM [inhibitor, single point]	–
O=C(COc1ccccc1[N+](=O)[O-])N(Cc1ccco1)c1ccccn1	–	inactive: -1.32%
COc1cc2c(=O)n(CCc3ccccc3)c(=O)n(CC(=O)Nc3ccccc3)c2cc1OC	–	inactive: -1.81%
COc1ccc(-c2cnnn2-c2ccc(NC(=O)c3ccc(S(=O)(=O)N4CCCCC4)cc3)cc2)cc1	inconclusive: 39.8 µM [inhibitor, single point]	–
Cc1cc2cc(CNC(=O)Nc3ccccc3)ccc2n1C	inconclusive: 31.6 µM [inhibitor, single point]	–
CCc1ccccc1N(C)C(=O)c1cc2c(=O)oc3ccccc3c2s1	–	inactive: 13.9%
CCCn1c(SCC(=O)N2N=C3/C(=C/c4ccc(OC)cc4)CCCC3C2c2ccc(OC)cc2)n[nH]c1=O (stereo not given)	–	inactive: 14.9%
Cc1ccc(C)c(CN2C(=O)c3ccccc3S(=O)(=O)c3ccc(C(=O)N4CCCCC4)cc32)c1	–	inactive: 1.73%
